Experimental data as given in the antibiotic and cytotoxicity screens of Wong et al. (2023).
This is one part of the list.

Legend:
[1] = test system: HSkMC (human skeletal muscle cells); experiment: cytotoxicity call (relative viability < 0.9); details: 10 µM
[2] = test system: HepG2; experiment: cytotoxicity call (relative viability < 0.9); details: 10 µM
[3] = test system: S. aureus RN4220; experiment: growth inhibition call (relative growth <= 0.2); details: 50 µM

CC(C)Oc1cccc(-n2c(CCc3c[nH]c4ccc(Br)cc34)nc3ccccc3c2=O)c1
cytotoxicity call [1]: active
cytotoxicity call [2]: inactive
growth inhibition call [3]: inactive

Cc1sc(C)c(CNc2ccccc2)c1CNc1ccccc1
cytotoxicity call [1]: inactive
cytotoxicity call [2]: inactive
growth inhibition call [3]: inactive

C[C@@H]1CCCCO[C@H](CN(C)Cc2ccc(Cl)c(Cl)c2)[C@@H](C)CN([C@H](C)CO)C(=O)c2cc(NC(=O)CCC(F)(F)F)ccc2O1
cytotoxicity call [1]: inactive
cytotoxicity call [2]: inactive
growth inhibition call [3]: inactive

CC(C)NC(=O)Nc1cccc2c1O[C@H](CN(C)Cc1ccc(Oc3ccccc3)cc1)[C@@H](C)CN([C@@H](C)CO)C2=O
cytotoxicity call [1]: inactive
cytotoxicity call [2]: active
growth inhibition call [3]: inactive

CCCCCCCCCCCCC[N+](C)(C)Cc1ccccc1.O.[Cl-]
cytotoxicity call [1]: active
cytotoxicity call [2]: active
growth inhibition call [3]: inactive

C[C@H](CO)N1C[C@H](C)[C@H](CN(C)Cc2ccc(-c3ccccc3)cc2)Oc2ccc(NC(=O)Nc3ccc4c(c3)OCO4)cc2C1=O
cytotoxicity call [1]: inactive
cytotoxicity call [2]: inactive
growth inhibition call [3]: inactive

C[C@@H]1CN([C@H](C)CO)C(=O)c2c(c3ccccc3n2C)-c2ccccc2CO[C@H]1CN(C)Cc1ccc(O)cc1
cytotoxicity call [1]: inactive
cytotoxicity call [2]: inactive
growth inhibition call [3]: inactive

CCS(=O)(=O)NCC[C@H]1CC[C@H](NC(=O)Cc2ccccn2)[C@H](CO)O1
cytotoxicity call [1]: inactive
cytotoxicity call [2]: inactive
growth inhibition call [3]: inactive

COc1ccccc1CNC(=O)C[C@H]1C[C@@H]2c3cc(NS(=O)(=O)c4ccc(F)cc4)ccc3O[C@@H]2[C@H](CO)O1
cytotoxicity call [1]: inactive
cytotoxicity call [2]: inactive
growth inhibition call [3]: inactive

Cc1oc2ccccc2c1-c1csc(-c2ccccc2)n1
cytotoxicity call [1]: inactive
cytotoxicity call [2]: inactive
growth inhibition call [3]: inactive

CN1C(=O)c2cc(NC(=O)C3CCOCC3)ccc2OC[C@@H]2O[C@H](CC(=O)NCc3ccccc3F)CC[C@H]21
cytotoxicity call [1]: inactive
cytotoxicity call [2]: inactive
growth inhibition call [3]: inactive

CN(C)CC(=O)N[C@@H]1CC[C@H](CCn2cc(CN(C)C)nn2)O[C@H]1CO
cytotoxicity call [1]: inactive
cytotoxicity call [2]: inactive
growth inhibition call [3]: inactive

[N-]=[N+]=Nc1ccccc1[C@H]1OC(c2ccc(OCCCO)cc2)=N[C@@]1(CCS(=O)(=O)c1ccccc1)C(=O)N1CCCCC1
cytotoxicity call [1]: inactive
cytotoxicity call [2]: inactive
growth inhibition call [3]: inactive

C[C@H](CO)N1C[C@H](C)[C@H](CN(C)C(=O)Nc2ccc(F)cc2)Oc2ccc(NC(=O)Cn3cnnn3)cc2C1=O
cytotoxicity call [1]: inactive
cytotoxicity call [2]: inactive
growth inhibition call [3]: inactive

NC(=O)NC(=O)C[n+]1ccc(/C=N/O)cc1
cytotoxicity call [1]: inactive
cytotoxicity call [2]: inactive
growth inhibition call [3]: inactive

O=C(O)CN(CC(=O)O)Cc1cc2c(-c3ccccc3C(=O)O)c3cc(CN(CC(=O)O)CC(=O)O)c(=O)cc-3oc2cc1O
cytotoxicity call [1]: inactive
cytotoxicity call [2]: inactive
growth inhibition call [3]: inactive

Cc1noc(C)c1NC(=O)N(C)C[C@H]1Oc2c(NC(=O)c3ccc(-c4nccs4)cc3)cccc2C(=O)N([C@@H](C)CO)C[C@@H]1C
cytotoxicity call [1]: inactive
cytotoxicity call [2]: inactive
growth inhibition call [3]: inactive

C[C@H](CO)N1C[C@H](C)[C@H](CN(C)S(=O)(=O)c2ccc(F)cc2)Oc2c(NS(C)(=O)=O)cccc2C1=O
cytotoxicity call [1]: inactive
cytotoxicity call [2]: inactive
growth inhibition call [3]: inactive

C[C@H]1CN([C@@H](C)CO)C(=O)c2cccc(NC(=O)Nc3ccc(F)cc3)c2O[C@H]1CN(C)C(=O)Nc1ccc(C(F)(F)F)cc1
cytotoxicity call [1]: inactive
cytotoxicity call [2]: inactive
growth inhibition call [3]: inactive

Cc1cncc2cccc(S(=O)(=O)NCCN(C/C=C/c3ccc(Br)cc3)C/C=C/c3ccc(Br)cc3)c12
cytotoxicity call [1]: inactive
cytotoxicity call [2]: inactive
growth inhibition call [3]: inactive

COc1ccc(NC(=O)Nc2ccc3c(c2)C(=O)N([C@@H](C)CO)C[C@@H](C)[C@@H](CN(C)S(=O)(=O)c2cn(C)cn2)O3)cc1
cytotoxicity call [1]: inactive
cytotoxicity call [2]: inactive
growth inhibition call [3]: inactive

C[C@@H]1CN([C@H](C)CO)C(=O)c2cc(NC(=O)Nc3ccc(C(F)(F)F)cc3)ccc2O[C@@H](C)CCCCO[C@H]1CN(C)S(=O)(=O)c1cccs1
cytotoxicity call [1]: inactive
cytotoxicity call [2]: inactive
growth inhibition call [3]: inactive

C[C@H]1CN([C@@H](C)CO)C(=O)c2cc(NC(=O)Nc3ccccc3)ccc2O[C@H]1CN(C)S(C)(=O)=O
cytotoxicity call [1]: inactive
cytotoxicity call [2]: inactive
growth inhibition call [3]: inactive

Cc1noc(C)c1NC(=O)Nc1cccc2c1O[C@H](CN(C)S(=O)(=O)c1cn(C)cn1)[C@@H](C)CN([C@@H](C)CO)C2=O
cytotoxicity call [1]: inactive
cytotoxicity call [2]: inactive
growth inhibition call [3]: inactive

C[C@H]1CN([C@@H](C)CO)C(=O)c2cc(NC(=O)Nc3ccc(C(F)(F)F)cc3)ccc2O[C@H]1CN(C)Cc1ccncc1
cytotoxicity call [1]: inactive
cytotoxicity call [2]: inactive
growth inhibition call [3]: inactive

C[C@@H]1CCCCO[C@@H](CN(C)Cc2ccc(C(F)(F)F)cc2)[C@H](C)CN([C@@H](C)CO)C(=O)c2cc(NS(=O)(=O)c3cn(C)cn3)ccc2O1
cytotoxicity call [1]: inactive
cytotoxicity call [2]: inactive
growth inhibition call [3]: inactive

C[C@@H]1CN([C@@H](C)CO)C(=O)CCCn2nncc2CO[C@H]1CN(C)Cc1cccc2c1OCCCO2
cytotoxicity call [1]: inactive
cytotoxicity call [2]: inactive
growth inhibition call [3]: inactive

COc1ccc(S(=O)(=O)Nc2ccc3c(c2)C(=O)N([C@@H](C)CO)C[C@H](C)[C@H](CN(C)C(=O)Nc2ccccc2)OCCCC[C@H](C)O3)cc1
cytotoxicity call [1]: inactive
cytotoxicity call [2]: inactive
growth inhibition call [3]: inactive

C[C@@H]1CCCCO[C@@H](CN(C)C(=O)c2ccccc2)[C@H](C)CN([C@@H](C)CO)C(=O)c2cc(NS(=O)(=O)c3ccc(Cl)cc3)ccc2O1
cytotoxicity call [1]: inactive
cytotoxicity call [2]: inactive
growth inhibition call [3]: inactive

C[C@H](CO)N1C[C@H](C)[C@@H](CN(C)S(C)(=O)=O)Oc2ccc(NC(=O)Cc3cn(C)c4ccccc34)cc2C1=O
cytotoxicity call [1]: inactive
cytotoxicity call [2]: inactive
growth inhibition call [3]: inactive

C[C@@H]1CN([C@H](C)CO)C(=O)Cc2cc(NC(=O)Nc3cccc4ccccc34)ccc2O[C@@H]1CN(C)Cc1ccc(C(=O)Nc2ccccc2N)cc1
cytotoxicity call [1]: inactive
cytotoxicity call [2]: inactive
growth inhibition call [3]: inactive

C[C@H](CO)N1C[C@H](C)[C@H](CN(C)S(=O)(=O)c2ccc(F)cc2)Oc2ncc(C#CC(C)(C)O)cc2C1=O
cytotoxicity call [1]: inactive
cytotoxicity call [2]: inactive
growth inhibition call [3]: inactive

CN(C)CCc1c[nH]c2ccc(CC3COC(=O)N3)cc12 (stereo not given)
cytotoxicity call [1]: inactive
cytotoxicity call [2]: inactive
growth inhibition call [3]: inactive

Cc1cc(C)n(CCNC(=O)[C@H]2CCCN(c3cccc4c3C(=O)N(Cc3ccc5c(c3)OCO5)C4=O)C2)n1
cytotoxicity call [1]: inactive
cytotoxicity call [2]: inactive
growth inhibition call [3]: inactive

C[C@@H]1CN([C@@H](C)CO)S(=O)(=O)c2ccc(C#Cc3ccccc3)cc2O[C@@H]1CN(C)S(=O)(=O)c1ccccc1F
cytotoxicity call [1]: inactive
cytotoxicity call [2]: inactive
growth inhibition call [3]: inactive

COc1ccc(CN(C)C[C@@H]2OCCCC[C@H](C)Oc3ccc(NC(=O)Cc4ccccc4)cc3C(=O)N([C@H](C)CO)C[C@@H]2C)cc1
cytotoxicity call [1]: inactive
cytotoxicity call [2]: inactive
growth inhibition call [3]: inactive

C[C@H]1CN([C@@H](C)CO)C(=O)Cc2cc(NC(=O)CCCCCC(=O)Nc3ccccc3N)ccc2O[C@@H]1CN(C)Cc1ccc(Cl)c(Cl)c1
cytotoxicity call [1]: inactive
cytotoxicity call [2]: inactive
growth inhibition call [3]: inactive

CCOC(=O)C(CCc1ccccc1)NC1CCc2ccccc2N(CC(=O)O)C1=O.Cl (stereo not given)
cytotoxicity call [1]: inactive
cytotoxicity call [2]: inactive
growth inhibition call [3]: inactive

C[C@@H]1CN([C@@H](C)CO)C(=O)c2cc(NC(=O)Nc3ccccc3)ccc2O[C@@H](C)CCCCO[C@@H]1CN(C)C(=O)Nc1ccc2c(c1)OCO2
cytotoxicity call [1]: inactive
cytotoxicity call [2]: inactive
growth inhibition call [3]: inactive

O=C(CN1CCOCC1)N[C@@H]1CC[C@H](CCNC(=O)Nc2cc(F)ccc2F)O[C@H]1CO
cytotoxicity call [1]: inactive
cytotoxicity call [2]: inactive
growth inhibition call [3]: inactive

C[C@@H]1CN([C@@H](C)CO)C(=O)c2cccc(NS(=O)(=O)c3cccs3)c2O[C@H]1CN(C)Cc1ccncc1
cytotoxicity call [1]: inactive
cytotoxicity call [2]: inactive
growth inhibition call [3]: inactive

C[C@@H]1CCCCO[C@H](CN(C)Cc2ccc(C(=O)O)cc2)[C@H](C)CN([C@H](C)CO)C(=O)c2cc(NC(=O)c3ccccc3)ccc2O1
cytotoxicity call [1]: inactive
cytotoxicity call [2]: inactive
growth inhibition call [3]: inactive

C[C@H](CO)N1C[C@H](C)[C@@H](CN(C)C(=O)Nc2ccc(C(F)(F)F)cc2)Oc2ccc(NC(=O)C3CCCCC3)cc2CC1=O
cytotoxicity call [1]: inactive
cytotoxicity call [2]: inactive
growth inhibition call [3]: inactive

C[C@H]1CCCCO[C@H](CN(C)CC2CCCCC2)[C@@H](C)CN([C@@H](C)CO)C(=O)c2cc(NS(=O)(=O)c3ccc(F)cc3)ccc2O1
cytotoxicity call [1]: inactive
cytotoxicity call [2]: active
growth inhibition call [3]: inactive

C[C@@H]1CCCCO[C@H](CN(C)C(=O)CCCN(C)C)[C@H](C)CN([C@@H](C)CO)C(=O)c2cc(NC(=O)Nc3ccc(F)cc3)ccc2O1
cytotoxicity call [1]: inactive
cytotoxicity call [2]: inactive
growth inhibition call [3]: inactive

O=C(Nc1cccc2cccnc12)[C@@H]1[C@H](c2ccc(I)cc2)CC(=O)N1C(=O)OCc1ccccc1
cytotoxicity call [1]: inactive
cytotoxicity call [2]: inactive
growth inhibition call [3]: inactive

Cc1noc(C)c1S(=O)(=O)Nc1ccc2c(c1)CC(=O)N([C@H](C)CO)C[C@@H](C)[C@@H](CN(C)Cc1ccc(C(=O)O)cc1)O2
cytotoxicity call [1]: inactive
cytotoxicity call [2]: inactive
growth inhibition call [3]: inactive

N[C@H](Cc1cc(I)c(Oc2ccc(O)c(I)c2)c(I)c1)C(=O)O
cytotoxicity call [1]: inactive
cytotoxicity call [2]: inactive
growth inhibition call [3]: inactive

C[C@H](CO)N1C[C@H](C)[C@H](CN(C)S(C)(=O)=O)Oc2ccc(NS(=O)(=O)c3cn(C)cn3)cc2C1=O
cytotoxicity call [1]: inactive
cytotoxicity call [2]: inactive
growth inhibition call [3]: inactive

C[C@H](CO)N1C[C@H](C)[C@@H](CN(C)C(=O)Nc2cccc3ccccc23)OCCCC[C@H](C)Oc2ccc(NC(=O)Nc3ccc(F)cc3)cc2C1=O
cytotoxicity call [1]: inactive
cytotoxicity call [2]: inactive
growth inhibition call [3]: inactive

C[C@@H]1CCCCO[C@H](CN(C)Cc2ccc(Cl)c(Cl)c2)[C@H](C)CN([C@@H](C)CO)C(=O)c2cc(NC(=O)Cc3ccccc3)ccc2O1
cytotoxicity call [1]: inactive
cytotoxicity call [2]: inactive
growth inhibition call [3]: inactive

O=C1NC(=O)[C@H]2CC[C@H]2N1
cytotoxicity call [1]: inactive
cytotoxicity call [2]: inactive
growth inhibition call [3]: inactive

CC1C(NC(=O)C(=NOC(C)(C)C(=O)O)c2csc(N)n2)C(=O)N1S(=O)(=O)O (stereo not given)
cytotoxicity call [1]: inactive
cytotoxicity call [2]: inactive
growth inhibition call [3]: inactive

C[C@@H]1CN([C@@H](C)CO)C(=O)Cc2cc(NC(=O)C3CC3)ccc2O[C@H]1CN(C)C(=O)Nc1ccc(F)cc1
cytotoxicity call [1]: inactive
cytotoxicity call [2]: inactive
growth inhibition call [3]: inactive

C[C@H](CO)N1C[C@H](C)[C@H](CN(C)S(=O)(=O)c2cn(C)cn2)OCCCC[C@H](C)Oc2ccc(NS(=O)(=O)c3ccccc3)cc2C1=O
cytotoxicity call [1]: inactive
cytotoxicity call [2]: inactive
growth inhibition call [3]: inactive
